Results taken from the supplement of paper PMC3334620.
Over roughly 33,000 sequences, “E-score (-0.5 to 0.5)” has its median near -0.041; the highest 2% begin near 0.37. The list shows a part of the results.

molecular target: T1, Ecm22 (UniProt Q05958); test: PBM E-score (8-mer binding enrichment) (E-score (-0.5 to 0.5)); higher = stronger / more preferred TF binding; most listed sequences are background and not binding sites; settings: protein concentration: 200 nM; construct: GST-full length
T1 sequence: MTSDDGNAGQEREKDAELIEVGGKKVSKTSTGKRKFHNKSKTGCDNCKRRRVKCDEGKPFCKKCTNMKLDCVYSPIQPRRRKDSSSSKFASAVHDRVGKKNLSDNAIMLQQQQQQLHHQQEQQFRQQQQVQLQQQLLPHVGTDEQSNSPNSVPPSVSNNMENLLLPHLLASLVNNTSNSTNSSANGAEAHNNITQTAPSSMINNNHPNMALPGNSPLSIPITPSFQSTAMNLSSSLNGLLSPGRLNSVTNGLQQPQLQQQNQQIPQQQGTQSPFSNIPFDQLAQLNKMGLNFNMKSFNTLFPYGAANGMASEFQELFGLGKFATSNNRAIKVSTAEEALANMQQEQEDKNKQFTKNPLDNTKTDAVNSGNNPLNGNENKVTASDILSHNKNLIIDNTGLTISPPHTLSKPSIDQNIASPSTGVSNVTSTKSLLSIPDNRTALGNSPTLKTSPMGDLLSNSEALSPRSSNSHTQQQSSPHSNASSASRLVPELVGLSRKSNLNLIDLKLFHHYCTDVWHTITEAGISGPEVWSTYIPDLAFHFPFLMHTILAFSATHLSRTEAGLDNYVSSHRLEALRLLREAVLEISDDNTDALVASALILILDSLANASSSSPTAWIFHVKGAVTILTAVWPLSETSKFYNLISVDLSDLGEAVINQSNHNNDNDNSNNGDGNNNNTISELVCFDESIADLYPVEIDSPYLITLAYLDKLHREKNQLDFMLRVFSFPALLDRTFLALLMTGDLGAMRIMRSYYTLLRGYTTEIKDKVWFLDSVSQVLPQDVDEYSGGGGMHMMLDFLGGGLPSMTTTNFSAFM
Experimental: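 Universal 'all 10-mer' protein binding microarrays (Agilent AMADID 015681) probed with GST-tagged S. cerevisiae TFs (full-length or DBD) made by in vitro transcription/translation (PURExpress), about 100-200 nM. Bound TF was detected with fluorescent anti-GST. Each ungapped 8-mer (which stands for itself and its reverse complement) is scored by the PBM enrichment score (E-score), a modified Wilcoxon-Mann-Whitney statistic from -0.5 to +0.5, computed with the Universal PBM Analysis Suite. Scale: above 0.35 generally sequence-specific binding.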

Row | Sequence | PBM E-score
1 | GGCGAGCA | -0.0165
2 | AAAGGTGA | -0.145
3 | GGATTGCA | -0.279
4 | GCGTAAGC | 0.173
5 | CCGTGTAG | 0.0955
6 | CAGCTATA | -0.0628
7 | CGCTAAGA | 0.149
8 | ATGCATAG | -0.191
9 | CTCAGTCC | -0.151
10 | CAACCATA | 0.0611
11 | CGAATCAA | 0.137
12 | CGCGTGCA | -0.187
13 | ACTAGCAG | -0.0203
14 | CTGTAGTC | 0.016
15 | AGCTCTAC | -0.162
16 | ATACTAAG | -0.0705
17 | CCTTGCCA | -0.247
18 | GAATTCCC | 0.013
19 | CCGAGAAA | 0.247
20 | ATGCTGCC | -0.13
21 | GAAGCGCA | 0.027
22 | GCCTCTAC | -0.123
23 | CCAGCAGC | -0.253
24 | AGGGTCAA | -0.0744
25 | GGTAATAC | 0.131

Row | Sequence | PBM E-score
26 | ATAAGTTA | 0.0972
27 | GTCGTAAC | 0.397
28 | AGCCCTTA | -0.219
29 | ACCGATAA | 0.116
30 | ACAATCAA | 0.0141
31 | GACGGAGC | -0.0469
32 | CCCTAGCG | -0.365
33 | AAATGATG | 0.0115
34 | AACGACAA | 0.41
35 | ATCGGTGA | 0.0361
36 | AGTCCACG | -0.159
37 | ATTACCGA | 0.204
38 | CACATTCG | 0.182
39 | AGATTATC | -0.0971
40 | AATGCTCA | -0.135
41 | CTCCCTAA | 0.00444
42 | AGCGAAGG | 0.174
43 | CCGTTATC | -0.00824
44 | CTTTCCGA | 0.0876
45 | ATGACCGC | -0.0791
46 | CGCGAACA | 0.19
47 | AATTGCTC | -0.129
48 | ACTGATCA | -0.0874
49 | CCGCTTTA | 0.046
50 | ATAGATTA | 0.0844

Row | Sequence | PBM E-score
51 | GCCCGAAA | 0.114
52 | GCCGTCCA | -0.149
53 | CATCGCAG | -0.0703
54 | GGGTGTTA | -0.174
55 | AGACGCTG | -0.187
56 | GGCTTCCA | -0.312
57 | ATGATAAC | 0.0703
58 | ATGCAACG | 0.168
59 | AGGTATGA | -0.00382
60 | ACAACGTC | 0.0302
61 | GGATTCCA | -0.03
62 | CACGGGTC | -0.15
63 | CGCCCCTC | -0.0406
64 | CAGATCTA | -0.184
65 | ATCACATA | 0.0886
66 | CACCATGA | -0.188
67 | GACGGTAC | 0.167
68 | GATGAGCC | -0.212
69 | ACTTCTCT | -0.0524
70 | CTGACTTA | -0.0814
71 | AATTGCCC | -0.214
72 | GAGACGGA | -0.0767
73 | TACCGTGA | -0.111
74 | CTTACATC | 0.0147
75 | ACTGTCAA | -0.0365

Row | Sequence | PBM E-score
76 | ATGGTGCA | -0.097
77 | CTTGAGTC | 0.0219
78 | ATAGAGCG | -0.0931
79 | CCAGAACG | 0.197
80 | ATCGCCCG | 0.067
81 | ACCGGTCA | 0.00026
82 | AGCAGGCT | -0.23
83 | CCATCGTC | 0.00759
84 | CACTGGTA | -0.0898
85 | AATAGAAT | -0.0663
86 | GGTACACC | 0.0576
87 | ATCACTAG | -0.0424
88 | GTACGCAC | 0.264
89 | GAGTCCAA | -0.2
90 | CAGCTGTA | 0.0261
91 | TATTCGAA | 0.0638
92 | CACCGGTA | -0.0461
93 | TGACGGCA | -0.198
94 | CAACAGAC | 0.0564
95 | AATGTACT | 0.013
96 | CTAGTCCC | -0.258
97 | CAGAAAAC | -0.0302
98 | ACGGCTCG | 0.321
99 | GTCAACAC | -0.109
100 | CCGTGTGA | 0.0262

Row | Sequence | PBM E-score
101 | CGTGCAGA | 0.0399
102 | TCTCGGAA | 0.159
103 | CATTCGAG | 0.146
104 | AATTAAGG | -0.141
105 | AGCCAAAG | -0.144
106 | CAGGGAAC | 0.216
107 | AAGAACCA | 0.0315
108 | AATTCAGT | -0.189
109 | AATACGCT | 0.121
110 | AAATGTGC | -0.00196
111 | TGCGACCA | 0.215
112 | GGCTCCGA | -0.099
113 | AATTACAT | 0.115
114 | CGGGACAA | -0.107
115 | CAGATGGC | 0.0388
116 | ACATGAAA | -0.0889
117 | CATATGGC | 0.0588
118 | GTTGGTGA | 0.00215
119 | ATTTGAGG | -0.153
120 | GGTCACTA | -0.0707
121 | GGCACCAA | -0.00421
122 | ATTCGGAC | 0.163
123 | GATGTAGA | -0.271
124 | ACTAATAT | 0.11
125 | AACGCAAC | 0.145

Row | Sequence | PBM E-score
126 | ATCGGTCG | 0.211
127 | GGTCTACA | -0.117
128 | GTAAATGA | 0.16
129 | AAAGCTCG | 0.289
130 | ACGAATGG | 0.275
131 | AATGCGCT | -0.136
132 | CTTTGGGC | -0.079
133 | CAACGCTA | -0.227
134 | CGCAACCA | -0.0632
135 | CCCAGCAA | -0.0485
136 | GCTAACCC | -0.0831
137 | CGAGAGGA | 0.167
138 | ATAGCTAG | -0.26
139 | GTCAAGGA | -0.211
140 | CATTGCAG | -0.0889
141 | CGACGGTA | 0.207
142 | GATTTCTA | -0.0135
143 | CCAGAGAC | -0.182
144 | AGTTGACC | -0.132
145 | AACGAATT | 0.36
146 | GAAGATTA | 0.0105
147 | TCATCACA | -0.17
148 | CCAACAAA | 0.065
149 | ACACAGCT | -0.169
150 | TAGGTGCA | -0.176

Row | Sequence | PBM E-score
151 | AAACCTAA | 0.0777
152 | GAAGAACA | -0.143
153 | ACAGGAAG | -0.122
154 | CAGGTGCC | -0.375
155 | GACTCATC | -0.147
156 | ACGCACGG | 0.0901
157 | ATTCGGTA | 0.24
158 | GTCGATAA | -0.04
159 | AGATGGAC | -0.084
160 | AAAGAAGT | -0.0866
161 | ACTGAGCA | -0.0478
162 | ATGGGGGA | -0.263
163 | CAACTTGA | -0.136
164 | GCCAGGAC | -0.226
165 | TAGGGACA | -0.204
166 | AAGAAGGG | -0.136
167 | GGAAGAAA | -0.124
168 | CCCTTTGA | -0.291
169 | GCCGCACA | -0.00675
170 | ATATAACC | 0.0466
171 | GCAGCCCA | -0.297
172 | AAACCTAG | -0.099
